Measured values reported in patent EP4663658A1 (Carbiogene Therapeutics Co., Ltd., dated 2025).

Target: T1, CLL1 protein (C-type lectin-like molecule 1) expressed on cells (UniProt Q5QGZ9 1-265, limits assumed)
T1 construct: whole, on cells; also called CLEC12A; C-type lectin domain family 12 member A
T1 sequence (looked up): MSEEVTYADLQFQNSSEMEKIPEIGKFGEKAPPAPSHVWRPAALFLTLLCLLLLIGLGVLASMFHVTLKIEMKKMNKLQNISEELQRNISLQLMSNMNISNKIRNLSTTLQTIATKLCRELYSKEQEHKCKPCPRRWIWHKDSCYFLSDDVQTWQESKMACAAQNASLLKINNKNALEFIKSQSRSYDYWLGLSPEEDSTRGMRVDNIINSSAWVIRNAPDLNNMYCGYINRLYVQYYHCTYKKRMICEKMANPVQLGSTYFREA
Assay: flow cytometry, FITC-labelled CLL1-VHH-1-hFc titrated on K562-CLL1 cells; KD from a double-reciprocal plot of MFI

Kd: 48.3 nM
B1: anti-CLL1 single-domain antibody fused with hFc (CLL1-VHH-1-hFc) (Fc fusion)
chain: DVQLQESGGGLVQPGGSLRLSCAASGFTFGDYDMTWVRQAPGKGPEWVSAINSGGGSTYYADSVKGRFTISRDNAKNTLYLQMNSLKPEDTAVYYCATIDRLSTVVAGTYQPSDEYDYWGQGTQVTVSS[no letters for human IgG1 Fc with changes]
notes: Expressed in HEK293 cells and purified on Protein A. No linker between VHH and hFc is described, and no signal peptide is described; For flow cytometry (KD, specificity) the protein was labelled with the Pierce NHS-Fluorescein Antibody Labeling Kit (FITC-CLL1-VHH-1-hFc); The NK cell assays used the unlabelled protein; also called FITC-CLL1-VHH-1-hFc; VHH-hFc
